The shares of active, inactive and inconclusive entries below differ from those in the screen. For some of these results: Potencies of inconclusive entries are doubtful fits and often do not repeat. The source holds several records for some structures; these can differ, active in one and inactive in another. The source made the active and inactive calls. Unless noted, calls come from the whole dose curve; as a rule, active = well fitted curve in the direction sought with a large enough effect in the repeat runs; inconclusive = weak or mixed curves; inactive = no such curve, though single readings can be large; an effect the other way counts as inactive or inconclusive.
Assays:
[1] = qHTS assay to identify small molecule antagonists of the sonic hedgehog signaling (Shh) pathway (AID 1259369; calls by dose curve; note: nearly all actives have a fitted effect of over 45% in size; note: potency is the fitted concentration of half-maximal effect; for activity change, negative = inhibition: % is set by controls: 0 for no effect and ±100 for the full control effect)
How it was run: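 NIH/3T3-derived Gli1-Luc reporter cells plated 4 h, dosed with compound, then stimulated with conditioned medium for 24 h at 37 C. Firefly luciferase luminescence read after 30 min with detection reagent at room temperature.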

[2] = molecular target: Estrogen receptor beta (Homo sapiens) (UniProt Q92731); assay: qHTS assay to identify small molecule antagonists of the estrogen receptor beta (ER-beta) signaling pathway (AID 1259378; active = well fitted inhibition curve with a large enough effect in the signal ratio in the repeat runs, not every such curve was filed as active; inconclusive = weak or mixed curves, or effect the other way; inactive = no such curve, though single readings can be large or run the other way; the % refers to the signal ratio; note: potency is the fitted concentration of half-maximal effect; for activity, negative = inhibition: % is set by controls: 0 for no effect and ±100 for the full control effect); conditions: ER-beta-UAS-bla HEK293T, beta-lactamase FRET ratio, 16 h; activity, negative = inhibition: at 92.4 µM (top of the series) unless noted
How it was run: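 Antagonist mode: compounds added to beta-lactamase reporter HEK293T ER-beta-UAS cells stimulated with E2 (1nM final), 16 hr at 37C. LiveBLAzer B/G FRET substrate, 2 hours room temperature, fluorescence read-out.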

[3] = qHTS assay to identify small molecule agonists of the estrogen receptor beta (ER-beta) signaling pathway - cell viability counter screen (AID 1259380); note: potency is the fitted concentration of half-maximal effect; nearly all actives have a fitted effect of over 30% in size
How it was run: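 ER-beta-UAS-bla HEK293T cells in medium with 2% charcoal-stripped FBS, pre-incubated 6 hr, then treated 16 hr at 37C. Cytotoxicity read in the same wells by CellTiter-Glo luminescence after 30 min at room temperature.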

[4] = qHTS assay to identify small molecule antagonists of the estrogen receptor beta (ER-beta) signaling pathway - cell viability counter screen (AID 1259382); note: potency is the fitted concentration of half-maximal effect; nearly all actives have a fitted effect of over 55% in size
How it was run: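 ER-beta-UAS-bla HEK293T cells in 2% charcoal-stripped FBS medium, treated with compound plus 1 nM 17-beta-estradiol for 16 h at 37C. Viability read by CellTiter-Glo luminescence after 30 min at room temperature in the same wells.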

[5] = qHTS assay to identify small molecule agonists of the estrogen receptor alpha (ER-alpha) signaling pathway in the presence of an antagonist - cell viability counter screen (AID 1259386);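 note: cells exposed to compounds for 22 h at 37 °C before the viability read; % is set by controls: 0 for no effect and ±100 for the full control effect; nearly all actives have a fitted effect of over 30% in size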
How it was run: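 Cell viability in VM7Luc4E2 cells (endogenous full-length ER-alpha) measured by CellTiter-Fluor fluorescence in the same wells as the luciferase screen. Cells pre-cultured 5 days in charcoal-stripped serum, then treated 22 h with compounds at 15 concentrations plus 10.0nM ICI-182,780.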

[6] = molecular target: Progesterone receptor (Homo sapiens) (UniProt P06401); assay: qHTS assay to identify small molecule agonists of the progesterone receptor (PR) signaling pathway (AID 1346784; calls by dose curve; note: % is set by controls: 0 for no effect and ±100 for the full control effect; nearly all actives have a fitted effect of over 30% in size); conditions: PR-UAS-bla HEK293T, beta-lactamase FRET ratio, 16 h; activation: at 92.4 µM (top of the series) unless noted
How it was run: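 Compounds were tested for PR agonism in HEK 293T cells bearing a beta-lactamase gene under UAS control. Treatment lasted 16 hr at 37C; signal came from fluorescence of a FRET substrate.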

[7] = qHTS assay to identify small molecule antagonists of the progesterone receptor (PR) signaling pathway - cell viability counter screen (AID 1346798); note: potency is the fitted concentration of half-maximal effect; nearly all actives have a fitted effect of over 50% in size
How it was run: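 Following a 4 hr attachment, PR-UAS-bla HEK293T cells in charcoal-stripped FBS medium were exposed to compounds with R5020 for 16 hr; CellTiter-Glo was added and luminescence read after 30 min at room temperature.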

[8] = qHTS assay to identify small molecule agonists of the progesterone receptor (PR) signaling pathway - cell viability counter screen (AID 1346799; calls by dose curve; note: nearly all actives have a fitted effect of over 45% in size; note: potency is the fitted concentration of half-maximal effect)
How it was run: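 Here, 3,000 PR-UAS-bla HEK293T cells per well were treated with compounds for 16 hr after a 6 hr preincubation at 37C and 5% CO2; cell viability is the CellTiter-Glo luminescence signal.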

[9] = qHTS assay to identify small molecule agonists of the androgen receptor (AR) signaling pathway in the presence of an antagonist - cell viability counter screen (AID 1259379); note: potency is the fitted concentration of half-maximal effect; nearly all actives have a fitted effect of over 25% in size
How it was run: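 MDA-kb2 cells (MMTV-luciferase, AR/GR), 3,000/well, 5 h attachment, then 3.0 µM nilutamide (final) and compounds at 15 concentrations. Viability by CellTiter-Fluor fluorescence after 16 h at 37 °C, 0% CO2, in the reporter wells.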

[10] = molecular target: Thyrotropin receptor (Homo sapiens) (UniProt P16473); assay: qHTS assay to identify small molecule antagonists of the thyroid stimulating hormone receptor (TSHR) signaling pathway (AID 1259385; calls by dose curve; note: nearly all actives have a fitted effect of over 20% in size; note: potency is the fitted concentration of half-maximal effect; for activity change, negative = inhibition: % is set by controls: 0 for no effect and ±100 for the full control effect); conditions: TSHR-HEK293 cAMP HTRF, TSH-stimulated antagonist mode; activity change, negative = inhibition: at 92.4 µM (top of the series) unless noted
How it was run: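 Antagonist mode: compound-treated TSHR-expressing HEK293 cells were stimulated with 1.5 ng/mL TSH (final) in presence of Ro20-1724 for 30 min at RT. HTRF cAMP detection after 1 h; each compound tested at 15 concentrations, triplicate.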

[11] = molecular target: Progesterone receptor (Homo sapiens) (UniProt P06401); assay: qHTS assay to identify small molecule antagonists of the progesterone receptor (PR) signaling pathway (AID 1346795; active = well fitted inhibition curve with a large enough effect in the signal ratio in the repeat runs, not every such curve was filed as active; inconclusive = weak or mixed curves; the % refers to the signal ratio; note: % is set by controls: 0 for no effect and ±100 for the full control effect); conditions: PR-UAS-bla HEK293T, beta-lactamase FRET ratio, 16 h; activity change, negative = inhibition: at 92.4 µM (top of the series) unless noted
How it was run: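 In HEK293T cells bearing the PR-UAS-bla reporter, compound effects on promegestone-driven (1 nM) beta-lactamase expression are assessed after 16 hr using a fluorescent FRET substrate incubated 2 hr at room temperature.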

[12] = qHTS assay to identify small molecule agonists of the TGF-beta/Smad signaling pathway - cell viability counter screen (AID 1346829); note: top concentration of the series differs between compounds; % is set by controls: 0 for no effect and ±100 for the full control effect; nearly all actives have a fitted effect of over 45% in size
How it was run: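 Here the cytotoxicity of library compounds is measured in SBE-bla HEK 293T cells treated for 5 hr, using CellTiter-Glo added to wells already read for the beta-lactamase reporter.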

[13] = qHTS assay to identify small molecule agonists of the TGF-beta/Smad signaling pathway (AID 1346859; active = well fitted activation curve with a large enough effect in the signal ratio in the repeat runs, not every such curve was filed as active; inconclusive = weak or mixed curves; the % refers to the signal ratio; note: potency is the fitted concentration of half-maximal effect); conditions: SBE-bla HEK293T, TGF-beta/Smad beta-lactamase reporter, 5 h; activation: at 76.8 µM (top of the series)
How it was run: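 Each well held 4,000 SBE-bla HEK 293T cells incubated overnight before compound addition; 5 hr later the cleavable FRET substrate went on for 2 hr at room temperature, and fluorescence was read at two emissions.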
Tags give direction and shape of the fitted curve or compound fluorescence and quenching.

Chain of UniProt Q92731 (Q92731 whole entry, looked up): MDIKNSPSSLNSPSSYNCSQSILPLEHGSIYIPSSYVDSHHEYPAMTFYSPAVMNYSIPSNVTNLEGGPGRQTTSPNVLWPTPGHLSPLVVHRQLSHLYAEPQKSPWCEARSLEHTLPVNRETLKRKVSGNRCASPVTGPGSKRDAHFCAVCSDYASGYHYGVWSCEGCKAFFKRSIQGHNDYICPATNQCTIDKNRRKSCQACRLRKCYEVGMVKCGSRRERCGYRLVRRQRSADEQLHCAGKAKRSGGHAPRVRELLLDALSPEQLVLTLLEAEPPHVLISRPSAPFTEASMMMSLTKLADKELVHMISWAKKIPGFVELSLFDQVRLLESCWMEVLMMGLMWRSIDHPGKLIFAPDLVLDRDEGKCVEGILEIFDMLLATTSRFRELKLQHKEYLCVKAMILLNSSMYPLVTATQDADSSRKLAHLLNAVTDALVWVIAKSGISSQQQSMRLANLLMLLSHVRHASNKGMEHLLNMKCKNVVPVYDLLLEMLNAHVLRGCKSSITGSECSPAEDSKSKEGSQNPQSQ
Chain of UniProt P06401 (P06401 whole entry, looked up): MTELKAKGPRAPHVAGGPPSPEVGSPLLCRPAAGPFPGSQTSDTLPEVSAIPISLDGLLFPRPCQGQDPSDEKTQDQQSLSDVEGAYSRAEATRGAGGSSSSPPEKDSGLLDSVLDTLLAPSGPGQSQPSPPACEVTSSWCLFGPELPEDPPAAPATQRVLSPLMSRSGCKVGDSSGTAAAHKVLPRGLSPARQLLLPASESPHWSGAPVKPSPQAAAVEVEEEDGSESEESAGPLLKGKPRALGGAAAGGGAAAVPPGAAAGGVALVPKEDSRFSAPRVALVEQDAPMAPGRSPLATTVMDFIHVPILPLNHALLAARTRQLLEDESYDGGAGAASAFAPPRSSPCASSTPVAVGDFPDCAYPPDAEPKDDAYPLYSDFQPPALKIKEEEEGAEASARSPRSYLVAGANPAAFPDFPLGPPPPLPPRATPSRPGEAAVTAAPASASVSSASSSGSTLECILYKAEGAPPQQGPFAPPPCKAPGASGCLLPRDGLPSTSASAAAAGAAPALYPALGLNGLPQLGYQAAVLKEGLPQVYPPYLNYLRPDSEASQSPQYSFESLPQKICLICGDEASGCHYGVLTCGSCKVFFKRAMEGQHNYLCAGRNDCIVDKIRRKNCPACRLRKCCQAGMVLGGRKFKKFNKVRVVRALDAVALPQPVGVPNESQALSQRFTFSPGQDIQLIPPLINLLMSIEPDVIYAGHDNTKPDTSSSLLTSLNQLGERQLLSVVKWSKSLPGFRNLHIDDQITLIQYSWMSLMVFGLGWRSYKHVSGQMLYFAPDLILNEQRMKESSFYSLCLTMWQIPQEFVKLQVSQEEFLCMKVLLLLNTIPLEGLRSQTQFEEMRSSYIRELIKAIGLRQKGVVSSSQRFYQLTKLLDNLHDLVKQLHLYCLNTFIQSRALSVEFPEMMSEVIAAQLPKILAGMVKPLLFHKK
Chain of UniProt P16473 (P16473 whole entry, looked up): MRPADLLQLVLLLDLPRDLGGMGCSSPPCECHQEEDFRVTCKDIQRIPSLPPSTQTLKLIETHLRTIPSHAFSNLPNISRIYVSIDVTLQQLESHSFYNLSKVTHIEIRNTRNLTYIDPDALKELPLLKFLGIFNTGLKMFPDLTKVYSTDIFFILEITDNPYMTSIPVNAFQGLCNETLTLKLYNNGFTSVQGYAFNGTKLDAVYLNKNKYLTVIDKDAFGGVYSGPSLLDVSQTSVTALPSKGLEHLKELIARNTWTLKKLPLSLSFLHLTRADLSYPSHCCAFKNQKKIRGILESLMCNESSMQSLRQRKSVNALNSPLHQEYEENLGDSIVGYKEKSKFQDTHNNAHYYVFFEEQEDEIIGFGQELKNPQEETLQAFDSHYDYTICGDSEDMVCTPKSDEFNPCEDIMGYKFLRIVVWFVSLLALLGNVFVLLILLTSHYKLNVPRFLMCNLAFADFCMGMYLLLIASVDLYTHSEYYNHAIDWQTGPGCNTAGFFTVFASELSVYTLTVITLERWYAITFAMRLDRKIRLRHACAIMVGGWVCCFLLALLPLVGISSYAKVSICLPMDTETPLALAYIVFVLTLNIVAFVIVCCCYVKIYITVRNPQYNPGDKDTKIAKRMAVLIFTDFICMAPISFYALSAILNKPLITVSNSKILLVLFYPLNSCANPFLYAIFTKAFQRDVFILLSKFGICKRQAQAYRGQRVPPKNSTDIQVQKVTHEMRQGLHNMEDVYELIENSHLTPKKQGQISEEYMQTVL

## C=CCNC(N)=S
[1]
  Potency: inactive
[2]
  activity, negative = inhibition: inconclusive: -35.1%
[3]
  Potency: inconclusive: 67.1 µM [cytotoxic, single point]
[4]
  Potency: inconclusive: 67.1 µM [cytotoxic, single point]
[5]
  Potency: inactive
[6]
  activation: inconclusive: 4.77%
[7]
  Potency: inconclusive: 47.5 µM [cytotoxic, partial curve]
[8]
  Potency: active: 21.2 µM and inactive

## CCCCOc1cc(C(=O)NCCN(CC)CC)c2ccccc2n1
[1]
  Potency: inconclusive: 18.8 µM [inhibitor, partial curve]
[2]
  activity, negative = inhibition: inconclusive: -35.3% [at 42.5 µM]
[9]
  Potency: inconclusive: 26.6 µM [cytotoxic, partial curve]
[3]
  Potency: inconclusive: 9.44 µM [cytotoxic, partial curve]
[10]
  Potency: inconclusive: 26.6 µM [falling, partial curve]
[11]
  activity change, negative = inhibition: inconclusive: -21.2% [at 42.5 µM]
[7]
  Potency: inconclusive: 15 µM [cytotoxic, partial curve]
[8]
  Potency: inconclusive: 3.35 µM [cytotoxic, full curve, poor fit]

## CN(C)C(=O)C(CCN1CCC(O)(c2ccc(Cl)cc2)CC1)(c1ccccc1)c1ccccc1
[1]
  Potency: inconclusive: 33.5 µM [inhibitor, single point]
[2]
  activity, negative = inhibition: inconclusive: -27.2% [at 42.5 µM]
[3]
  Potency: active: 26.6 µM
[11]
  activity change, negative = inhibition: inconclusive: -34.4% [at 42.5 µM]
[12]
  Potency: inactive
[13]
  Potency: inconclusive: 10.7 µM [rising, partial curve]

## Cc1cc(CC(=O)O)c(C)n1-c1ccc(Cl)cc1
[1]
  Potency: inconclusive: 33.5 µM [inhibitor, single point]
[2]
  Potency: inconclusive: 10.6 µM [inhibitor, partial curve]
[3]
  Potency: active: 10.6 µM
[10]
  Potency: inactive
[8]
  Potency: inactive
[12]
  Potency: inactive
